These results are taken from PMC12820563, “FoxP3 forms a head-to-head dimer in vivo and stabilizes its multimerization on adjacent microsatellites”.

This is one part of the list.

This assay concerns the target T1, MBP-FoxP1dN (Mus musculus, UniProt P58462 326-579).
T1 sequence: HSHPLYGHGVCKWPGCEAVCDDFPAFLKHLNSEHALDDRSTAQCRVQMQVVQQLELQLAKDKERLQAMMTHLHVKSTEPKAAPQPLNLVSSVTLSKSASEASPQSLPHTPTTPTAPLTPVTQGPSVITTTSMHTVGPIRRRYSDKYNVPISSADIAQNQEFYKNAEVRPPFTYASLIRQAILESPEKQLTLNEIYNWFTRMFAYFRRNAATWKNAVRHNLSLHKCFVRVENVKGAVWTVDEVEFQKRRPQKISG
Kind of assay: PD-seq (MBP pull-down with sequencing); 20 mM Tris-HCl pH 7.5, 100 mM NaCl, 1.5 mM MgCl2, 0.4 uM protein, 0.1 uM dsDNA library, 30 min, room temperature, amylose pull-down; high values mean tight binding. As to conditions: protein: recombinant; tags: His6-MBP; chain copies: 2; dsDNA, one strand shown. The method in brief: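 A fragment of mouse FoxP3 or FoxP1 without its N-terminus, carrying a His6-MBP tag and produced in E. coli, was combined at 0.4 µM with a 0.1 µM degenerate double-stranded DNA library filled in with Klenow. The mixture sat for 30 min at room temperature in Tris pH 7.5 buffer containing NaCl and MgCl2. Protein–DNA complexes were captured on amylose resin, washed three times, and the DNA was freed with proteinase K, barcoded by PCR and sequenced on Illumina. Binding is expressed as reads-per-million enrichment of pull-down over input, with replicates pooled.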
“GATGATTGTTCTCCCAGCTGATGAATTGACTTCGTCGAGTAAACAAATTTTCCTAATCTTTCTGTTCAAGCGCCATCTAC”: the binding signal was 0.964 RPM ratio (pull-down/input).
Turning to “GATGATTGTTCTCCCAGCTGATGAATTTCCACACTCGAGTAAACAAATTTTCCTAATCTTTCTGTTCAAGCGCCATCTAC”, the binding signal was 0.908 RPM ratio (pull-down/input).
Then “GATGATTGTTCTCCCAGCTGATGAATTACATGATTCGAGTAAACAAATTTTCCTAATCTTTCTGTTCAAGCGCCATCTAC”, with 1.22 RPM ratio (pull-down/input); and “GATGATTGTTCTCCCAGCTGATGAATTGCTGACGTCGAGTAAACAAATTTTCCTAATCTTTCTGTTCAAGCGCCATCTAC”, with 1.09 RPM ratio (pull-down/input); and “GATGATTGTTCTCCCAGCTGATGAATTAGTCTGCTCGAGTAAACAAATTTTCCTAATCTTTCTGTTCAAGCGCCATCTAC”, with 0.819 RPM ratio (pull-down/input).
With “GATGATTGTTCTCCCAGCTGATGAATTGCTATTCTCGAGTAAACAAATTTTCCTAATCTTTCTGTTCAAGCGCCATCTAC” the figure was 1.29 RPM ratio (pull-down/input); with “GATGATTGTTCTCCCAGCTGATGAATTGGGCCGTTCGAGTAAACAAATTTTCCTAATCTTTCTGTTCAAGCGCCATCTAC”, 0.85 RPM ratio (pull-down/input).
Then “GATGATTGTTCTCCCAGCTGATGAATTCATCTCTTCGAGTAAACAAATTTTCCTAATCTTTCTGTTCAAGCGCCATCTAC”, with 0.774 RPM ratio (pull-down/input); and “GATGATTGTTCTCCCAGCTGATGAATTGGCTTACTCGAGTAAACAAATTTTCCTAATCTTTCTGTTCAAGCGCCATCTAC”, with 0.92 RPM ratio (pull-down/input).
For the sequence “GATGATTGTTCTCCCAGCTGATGAATTAGCTGCGTCGAGTAAACAAATTTTCCTAATCTTTCTGTTCAAGCGCCATCTAC”, the binding signal was 1.01 RPM ratio (pull-down/input).
With “GATGATTGTTCTCCCAGCTGATGAATTCCGTTGTTCGAGTAAACAAATTTTCCTAATCTTTCTGTTCAAGCGCCATCTAC” the figure was 1.12 RPM ratio (pull-down/input); with “GATGATTGTTCTCCCAGCTGATGAATTTGGTAGTTCGAGTAAACAAATTTTCCTAATCTTTCTGTTCAAGCGCCATCTAC”, 0.932 RPM ratio (pull-down/input).
Then “GATGATTGTTCTCCCAGCTGATGAATTTCCATCGTCGAGTAAACAAATTTTCCTAATCTTTCTGTTCAAGCGCCATCTAC”, with 0.808 RPM ratio (pull-down/input); and “GATGATTGTTCTCCCAGCTGATGAATTATTACTGTCGAGTAAACAAATTTTCCTAATCTTTCTGTTCAAGCGCCATCTAC”, with 1.17 RPM ratio (pull-down/input).
With “GATGATTGTTCTCCCAGCTGATGAATTACGCGTATCGAGTAAACAAATTTTCCTAATCTTTCTGTTCAAGCGCCATCTAC” the figure was 1.12 RPM ratio (pull-down/input); with “GATGATTGTTCTCCCAGCTGATGAATTGGGTCGATCGAGTAAACAAATTTTCCTAATCTTTCTGTTCAAGCGCCATCTAC”, 0.929 RPM ratio (pull-down/input).
On to “GATGATTGTTCTCCCAGCTGATGAATTGCCCGACTCGAGTAAACAAATTTTCCTAATCTTTCTGTTCAAGCGCCATCTAC”, for which the binding signal was 0.806 RPM ratio (pull-down/input).
With “GATGATTGTTCTCCCAGCTGATGAATTGTGGGTGTCGAGTAAACAAATTTTCCTAATCTTTCTGTTCAAGCGCCATCTAC” the figure was 1.04 RPM ratio (pull-down/input); with “GATGATTGTTCTCCCAGCTGATGAATTGAGGCCCTCGAGTAAACAAATTTTCCTAATCTTTCTGTTCAAGCGCCATCTAC”, 0.796 RPM ratio (pull-down/input); with “GATGATTGTTCTCCCAGCTGATGAATTTCCCGGATCGAGTAAACAAATTTTCCTAATCTTTCTGTTCAAGCGCCATCTAC”, 0.83 RPM ratio (pull-down/input).
With “GATGATTGTTCTCCCAGCTGATGAATTACACAACTCGAGTAAACAAATTTTCCTAATCTTTCTGTTCAAGCGCCATCTAC” the figure was 1.43 RPM ratio (pull-down/input); with “GATGATTGTTCTCCCAGCTGATGAATTCTTTGGATCGAGTAAACAAATTTTCCTAATCTTTCTGTTCAAGCGCCATCTAC”, 0.851 RPM ratio (pull-down/input).
For “GATGATTGTTCTCCCAGCTGATGAATTGCGGACGTCGAGTAAACAAATTTTCCTAATCTTTCTGTTCAAGCGCCATCTAC”, the binding signal was 1.02 RPM ratio (pull-down/input).
With “GATGATTGTTCTCCCAGCTGATGAATTGACCGAGTCGAGTAAACAAATTTTCCTAATCTTTCTGTTCAAGCGCCATCTAC” the figure was 0.835 RPM ratio (pull-down/input); with “GATGATTGTTCTCCCAGCTGATGAATTTCGGTCGTCGAGTAAACAAATTTTCCTAATCTTTCTGTTCAAGCGCCATCTAC”, 0.902 RPM ratio (pull-down/input).
Then “GATGATTGTTCTCCCAGCTGATGAATTAAACGGTTCGAGTAAACAAATTTTCCTAATCTTTCTGTTCAAGCGCCATCTAC”, with 0.902 RPM ratio (pull-down/input).
Then “GATGATTGTTCTCCCAGCTGATGAATTGTACATATCGAGTAAACAAATTTTCCTAATCTTTCTGTTCAAGCGCCATCTAC”, with 1.6 RPM ratio (pull-down/input); and “GATGATTGTTCTCCCAGCTGATGAATTTTAGGTCTCGAGTAAACAAATTTTCCTAATCTTTCTGTTCAAGCGCCATCTAC”, with 0.798 RPM ratio (pull-down/input).
As for “GATGATTGTTCTCCCAGCTGATGAATTTCCTCGATCGAGTAAACAAATTTTCCTAATCTTTCTGTTCAAGCGCCATCTAC”, the binding signal was 0.856 RPM ratio (pull-down/input).
With “GATGATTGTTCTCCCAGCTGATGAATTATCGCTGTCGAGTAAACAAATTTTCCTAATCTTTCTGTTCAAGCGCCATCTAC” the figure was 1.05 RPM ratio (pull-down/input).
Then “GATGATTGTTCTCCCAGCTGATGAATTCTGTCCCTCGAGTAAACAAATTTTCCTAATCTTTCTGTTCAAGCGCCATCTAC”, with 0.907 RPM ratio (pull-down/input); and “GATGATTGTTCTCCCAGCTGATGAATTCTCCTCGTCGAGTAAACAAATTTTCCTAATCTTTCTGTTCAAGCGCCATCTAC”, with 0.8 RPM ratio (pull-down/input).
With “GATGATTGTTCTCCCAGCTGATGAATTGTTGTTATCGAGTAAACAAATTTTCCTAATCTTTCTGTTCAAGCGCCATCTAC” the figure was 2.91 RPM ratio (pull-down/input); with “GATGATTGTTCTCCCAGCTGATGAATTACGCTATTCGAGTAAACAAATTTTCCTAATCTTTCTGTTCAAGCGCCATCTAC”, 1.05 RPM ratio (pull-down/input); with “GATGATTGTTCTCCCAGCTGATGAATTCGTATAGTCGAGTAAACAAATTTTCCTAATCTTTCTGTTCAAGCGCCATCTAC”, 0.905 RPM ratio (pull-down/input).
“GATGATTGTTCTCCCAGCTGATGAATTTAGAGCGTCGAGTAAACAAATTTTCCTAATCTTTCTGTTCAAGCGCCATCTAC”: the binding signal is 0.997 RPM ratio (pull-down/input).
“GATGATTGTTCTCCCAGCTGATGAATTGTAGTTGTCGAGTAAACAAATTTTCCTAATCTTTCTGTTCAAGCGCCATCTAC”: the binding signal is 1.69 RPM ratio (pull-down/input).
Then “GATGATTGTTCTCCCAGCTGATGAATTAGAGGGCTCGAGTAAACAAATTTTCCTAATCTTTCTGTTCAAGCGCCATCTAC”, with 0.8 RPM ratio (pull-down/input).
With “GATGATTGTTCTCCCAGCTGATGAATTACGCTACTCGAGTAAACAAATTTTCCTAATCTTTCTGTTCAAGCGCCATCTAC” the figure was 1.05 RPM ratio (pull-down/input); with “GATGATTGTTCTCCCAGCTGATGAATTCATCGAGTCGAGTAAACAAATTTTCCTAATCTTTCTGTTCAAGCGCCATCTAC”, 0.817 RPM ratio (pull-down/input).
